# Assay results reported in PMC4336329 (PLoS ONE, 2015).
# Screen size: about 310,000 compounds; about 14,000 (4.5%) showed an effect of 50% or more. Effects have a minus sign here. The list shows a part of the results.
# Target: human ether-à-go-go-related gene (hERG) potassium channel (human, UniProt Q12809)
# Assay: primary screen, population patch clamp on CHO cells stably expressing hERG
# 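Note: peak tail current of the secondary pulse compared with the same well before compound.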
# Sequence of human ether-à-go-go-related gene (hERG) potassium channel (Q12809 whole entry, looked up): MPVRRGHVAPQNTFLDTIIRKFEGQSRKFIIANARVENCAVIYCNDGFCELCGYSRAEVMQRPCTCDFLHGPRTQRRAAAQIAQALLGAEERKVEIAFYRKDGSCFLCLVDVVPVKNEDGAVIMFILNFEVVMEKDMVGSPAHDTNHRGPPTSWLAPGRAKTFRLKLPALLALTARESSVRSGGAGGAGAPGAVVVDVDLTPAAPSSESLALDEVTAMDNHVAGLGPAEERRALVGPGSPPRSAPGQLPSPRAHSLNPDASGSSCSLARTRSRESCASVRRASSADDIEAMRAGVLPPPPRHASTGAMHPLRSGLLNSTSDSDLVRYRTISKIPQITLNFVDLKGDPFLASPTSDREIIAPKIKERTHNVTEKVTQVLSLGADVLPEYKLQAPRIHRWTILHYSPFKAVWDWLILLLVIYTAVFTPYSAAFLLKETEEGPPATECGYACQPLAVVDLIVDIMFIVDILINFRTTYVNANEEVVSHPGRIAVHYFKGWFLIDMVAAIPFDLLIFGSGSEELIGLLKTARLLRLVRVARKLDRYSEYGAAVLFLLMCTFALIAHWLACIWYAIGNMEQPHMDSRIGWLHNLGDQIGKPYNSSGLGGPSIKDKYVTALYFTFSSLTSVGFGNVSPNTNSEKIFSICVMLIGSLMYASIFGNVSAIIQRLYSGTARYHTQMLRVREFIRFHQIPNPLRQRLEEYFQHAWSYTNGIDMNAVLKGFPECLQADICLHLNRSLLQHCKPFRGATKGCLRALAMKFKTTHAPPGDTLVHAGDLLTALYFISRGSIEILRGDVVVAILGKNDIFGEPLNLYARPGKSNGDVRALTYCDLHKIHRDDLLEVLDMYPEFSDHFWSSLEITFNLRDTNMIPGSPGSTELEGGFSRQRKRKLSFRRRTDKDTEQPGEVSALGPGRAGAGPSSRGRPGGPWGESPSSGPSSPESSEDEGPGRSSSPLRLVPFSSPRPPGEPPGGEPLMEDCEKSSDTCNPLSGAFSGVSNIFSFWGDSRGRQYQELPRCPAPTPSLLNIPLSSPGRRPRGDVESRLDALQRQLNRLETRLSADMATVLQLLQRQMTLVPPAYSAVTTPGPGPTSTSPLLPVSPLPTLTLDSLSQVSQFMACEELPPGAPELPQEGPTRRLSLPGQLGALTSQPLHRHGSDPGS
row,SMILES,"hERG current change (%, negative = inhibition) at 10uM"
1,OCCN1CCN(c2nnc(-c3ccccc3)c3ccccc23)CC1,-23.5%
2,O=C(NCc1ccncc1)C1CCCN(S(=O)(=O)c2cc(Cl)ccc2Cl)C1 (centres unmarked),-61.2%
3,COc1ccccc1-c1sc2ccccc2c1-c1ccc(C(C)=O)cc1,4.86%
4,CC(=O)c1ccc(OCCCC(=O)NCCc2ccc(C(F)(F)F)cc2)cc1,8.51%
5,COc1ccc(OC)c(NC(=O)CCNC(=O)Cn2cnc3ccccc3c2=O)c1,3.58%
6,Cc1ccnc(SCC(=O)Nc2sc3c(c2C#N)CCCC3)n1,5.57%
7,CCOc1ccc(S(=O)(=O)N(CC)CC)cc1NC(=O)c1ccc(N2CCCC2=O)cc1,18.2%
8,COC(=O)CSc1nnc(-c2ccccn2)n1N,-8.2%
9,Cc1nc(NC(=O)CC(C)C)sc1-c1csc(Nc2ccc(Cl)cc2)n1,3.23%
10,CN1C(=O)/C(=C/c2cn(CC(=O)N3CCCCC3)c3ccccc23)NC1=S,11.6%
11,COc1cc(C(C(=O)NC2CCCC2)N(C(=O)c2snc(C(N)=O)c2N)C2CCCC2)cc(OC)c1OC (centres unmarked),3.28%
12,Cc1ccc(-c2cc(Cc3ccc(F)cc3)c(=O)[nH]n2)cc1,13.1%
13,CC(C)/C=N\NC(=O)CCCCC(=O)N/N=C/C(C)C,6.11%
14,Cn1c(=O)cc(SCC(=O)NCCC2=CCCCC2)c2ccc(Cl)cc21,-8.59%
15,CC(C)CN(CC(C)C)CC(O)COc1ccc([N+](=O)[O-])cc1.Cl (centres unmarked),-66.8%
16,CCC[C@H](N[C@@H](CCC)[C@H](O)c1ccccc1)[C@H](O)c1ccccc1,28.6%
17,CCCc1nnc(NC(=O)c2cc3ccccc3oc2=O)s1,-7.49%
18,CCCC[C@@H]1CN=C(N)N1CCc1cc(C(F)(F)F)cc(C(F)(F)F)c1,-20.2%
19,COc1cc(/C=C(/C#N)c2ccc(F)cc2)ccc1Oc1ccc([N+](=O)[O-])cn1,11%
20,Cc1cc(C)nc(NC(=NCCc2c[nH]c3ccccc23)NC(=O)Nc2cccc([N+](=O)[O-])c2)n1,-1.33%
21,CCCn1c(NC(=O)CCS(=O)(=O)c2ccc(C)cc2)nc2ccccc21,-24.2%
22,O=C(CCl)N1N=C(c2ccco2)CC1c1ccco1 (centres unmarked),14%

row,SMILES,"hERG current change (%, negative = inhibition) at 10uM"
1,CCC(C)NC(=O)CNC(=S)N(Cc1ccc(F)cc1)C1CCCCC1 (centres unmarked),6.9%
2,COc1cc([N+](=O)[O-])ccc1NC(=O)Nn1cnnc1,9.89%
3,COCOc1ccc(C=O)cc1OCOC,14.6%
4,COc1ccc(CNC(=O)CSc2nnc3nc(C)cc(C)n23)cc1OC,0.315%
5,Cc1c(C)c2ccc(OCc3ccc(C(=O)O)o3)c(C)c2oc1=O,4.38%
6,CC(NC(=O)COc1ccccc1)C(=O)NC1=NCCS1 (centres unmarked),0.963%
7,COc1cccc(N(CC(=O)Nc2ccccc2C(=O)N2CCCC2)S(C)(=O)=O)c1,19.1%
8,CC(C)[C@H](NC(N)=O)C(=O)Nc1ccc(Oc2ccccc2)cc1,9.16%
9,COc1cccc(N2C(=O)C3CC=C(Cl)CC3C2=O)c1 (centres unmarked),-5.03%
10,O=C(c1ccc2c(c1)OCCO2)C1CCN(S(=O)(=O)c2ccccc2F)CC1,5.32%
11,NC(=S)N1CCCc2ccccc21,-3.03%
12,CC1CCCCN1S(=O)(=O)c1ccc(C(=O)Nc2nnc(-c3cccs3)o2)cc1 (centres unmarked),-8.87%
13,S=c1[nH]nc(COc2ccccc2)n1C1CCCCC1,24.3%
14,Oc1ccc(Br)cc1-c1nc2cnccn2c1NC1CCCCC1,1.07%
15,COc1ccccc1N1CCN(C(=O)CSc2nnc(NC(=O)C3CCC3)s2)CC1,-4.25%
16,Cc1ccc(S(=O)(=O)NC(=O)COc2cc(C)ccc2C(C)C)cc1,10.1%
17,COC(=O)CCN(C(=O)c1cc([N+](=O)[O-])cc([N+](=O)[O-])c1)c1ccccn1,17.6%
18,CNS(=O)(=O)c1cccc(C(=O)OCC(=O)NCc2ccccc2)c1,8.3%
19,CC(=O)Nc1cc[n+](C(C)C(=O)c2ccc(Cl)cc2)cc1.[Cl-] (centres unmarked),25.4%
20,CCOc1ccc(NS(=O)(=O)c2ccc(C(=O)NC3CCN(Cc4ccccc4)CC3)cc2)cc1,3.07%
21,Cc1ccc(CNC(=O)CN2C(=O)c3ccccc3S2(=O)=O)cc1,-14.1%
22,Nn1c(Cc2cccc3ccccc23)nnc1SCc1ccccc1Cl,-9.47%

row,SMILES,"hERG current change (%, negative = inhibition) at 10uM"
1,O=C(C(=O)N1CCN(c2ccccc2)CC1)c1cn(CC(=O)N2CCCCCC2)c2ccccc12,-6.07%
2,CCCn1c(SCC(=O)Nc2nnc(C)s2)nnc1C1CC1,6.04%
3,COC(=O)c1ccc(/C=C/C(=O)OCC(=O)Nc2ncc(Cl)cc2Cl)cc1,-19.9%
4,O=C(O)c1cccc(CSc2n[nH]c(-c3ccc(Cl)cc3Cl)n2)c1,2.18%
5,CCn1nc(C)c(CNC(=O)Nc2ccc3c(c2)OCO3)c1C,0.832%
6,COCCNC(=O)c1ccc(Cn2c(=S)[nH]c3cc4c(cc3c2=O)OCO4)cc1,16.5%
7,O=C1c2ccccc2C(=O)N1n1cccc1,8.7%
8,CCCCc1c(O)nc(SCC(=O)N2CCCCC2)n(-c2ccccc2C)c1=O,12.4%
9,Cc1ccc(CNC(=O)CN2CCN(Cc3ccc(Cl)cc3)C2=O)cc1,-20.9%
10,O=C(N/N=C1\CC2CC=CC12)c1ccc(Br)cc1 (centres unmarked),9.05%
11,COc1ccccc1NC(=O)C(C)OC(=O)C1CC(=O)N(c2ccc3c(c2)OCCO3)C1 (centres unmarked),4.97%
12,Cl.OCCN1CCN(CC/C=C2/c3ccccc3Sc3ccc(Cl)cc32)CC1,-68.8%
13,Cc1ccc2[nH]c3c(c2c1)CN(C(=O)CN1CCCCC1)CC3,-31.8%
14,COc1cccc(OC)c1C(=O)NC(C)CCc1ccccc1 (centres unmarked),-19.1%
15,CC(=O)c1c(O)c2cccc3c2n(c1=O)CCC3,13.7%
16,CCOC(=O)c1sc(NC(=O)c2cc(-c3ccc(C)cc3)nc3ccccc23)c(C#N)c1C,5.31%
17,CCC(=O)N(Cc1cc(=O)[nH]c2ccccc12)c1ccc(OC)cc1,-25.1%
18,COc1cccc(CC(=O)Nc2ccc3c(c2)CCC3)c1,10.1%
19,O=C(COC(=O)c1ccccc1C(=O)c1ccccc1)Nc1ccc(SC(F)F)cc1,-2.06%
20,COc1ccc(NC(=O)CC(=O)Nc2ccc(OC)cc2)cc1,-3.55%
21,CCn1c2ccccc2c2nnc(SCC(=O)c3ccccc3)nc21,-2.15%
22,O=c1oc2cc([N+](=O)[O-])ccc2nc1/C=C(\O)c1cccc(Br)c1,4.15%

row,SMILES,"hERG current change (%, negative = inhibition) at 10uM"
1,COc1ccc(NC(=O)c2ccccc2)c([N+](=O)[O-])c1,1.48%
2,N#CCCn1c(SCC(=O)Nc2ccc(N3CCOCC3)cc2)nc2ccccc21,-7.68%
3,O=[N+]([O-])c1c(NCCO)cc(N2CCN(Cc3ccc4c(c3)OCO4)CC2)c2nonc12,-27.6%
4,COc1ccccc1NC(=O)C1CCCCN1S(=O)(=O)c1ccc(F)cc1 (centres unmarked),-27.9%
5,Cc1ccccc1OCc1nnc(SCC(=O)N2CCc3ccccc32)n1C,-0.724%
6,Cc1ccc(S(=O)(=O)NCC(=O)N(CC(=O)NCc2ccco2)Cc2ccc(F)cc2)cc1,5.19%
7,C/C(=N\NC(=O)c1ccccc1)c1ccc(N2CCOCC2)cc1,13.1%
8,Cc1onc(-c2c(Cl)cccc2Cl)c1/C(N)=N/OC(=O)C1CC1,13.6%
9,Cc1cccn2c(=O)c(/C=C(\C#N)C(N)=O)c(N3CCN(Cc4ccc5c(c4)OCO5)CC3)nc12,-39.7%
10,COc1ccc(C(C(=O)NC(C)(C)C)N(Cc2ccco2)C(=O)CCC(=O)Nc2ccccn2)cc1 (centres unmarked),1.22%
11,Cc1c(C(=O)Nc2ccc3c(c2)OCCO3)oc2ccc(Br)cc12,0.46%
12,CCC(=O)Nc1ccc(NC(=O)CSc2nnnn2-c2ccc(OC)cc2)cc1,19.1%
13,CCC1Oc2ccccc2N(CC(=O)NCCCN2CCCCC2C)C1=O (centres unmarked),-3.17%
14,CCOC(=O)[C@H]1O[C@@H]1C(=O)N[C@@H](CC(C)C)C(=O)NCCC(C)C,27.7%
15,CCCCCN(C(=O)CCC(=O)OC(C)C(=O)Nc1cccc(C#N)c1)c1c(N)n(CCCC)c(=O)[nH]c1=O (centres unmarked),17.5%
16,Cc1nn(C)c(C)c1CN(Cc1nc(-c2ccc(F)cc2F)oc1C)C1CC1,-6.87%
17,Cc1cccc(N(Cc2ccccc2)C(=O)CN2C(=O)NC3(CCCC3)C2=O)c1,-14.4%
18,Cc1ccc(Nc2ncnc(N)n2)cc1C,14.8%
19,Cc1ccc(CN(Cc2cccnc2)C(=S)Nc2cc(Cl)ccc2C)cc1,3.89%
20,O=S(=O)(c1ccc(NCc2ccc(F)cc2)nc1)N1CCCC1,-6.22%
